# About 40 (0.04%) of roughly 110,000 compounds were called active. The inconclusive results got no clear call from the source; some entries with a clear call stand among them for comparison. The call rests on the fitted dose curve; in most records, active means well fitted curve in the direction sought with a large enough effect in the signal ratio (not every such curve was filed as active); inconclusive means small, poorly fitted or top-dose-only effect, or a change in a side signal; inactive means flat fitted curve, though single readings scatter; the % refers to the signal ratio. Potencies of inconclusive entries are doubtful fits and often do not repeat.
# Test: IkB Signaling;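 on IkBa stabilization activation: 0% = basal untreated cells and 100% = reference inhibitor full response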
# Settings: ABC-DLBCL IkBa-CBG/CBR dual luciferase ratio (green luciferase fused to IkBa over red control in OCI-Ly3 lymphoma cells), 4 h; IkBa stabilization activation: at 57.1 µM (top of the series), scaled: untreated 0%, proteasome inhibitor 100% unless noted
# In short: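 Curves were fitted separately to fusion (green), unfused (red) and ratio luminescence, then classed by r2, magnitude and activity. Cells: OCI-Ly3, 4 h compound plus doxycycline at 37C; 10 uM MG-132 defined full response.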
# Potency means the concentration at half of the fitted maximal effect.
Structure (SMILES),IkBa stabilization activation,Potency
Brc1ccccc1Cn1c(-c2cncs2)nc2ccccc21,inconclusive: 6.01% [signal inhibitor],–
N#Cc1nc(COc2cccc(Cl)c2)oc1NCCc1ccccc1,inconclusive: 5.62% [signal inhibitor],–
CC(C)c1ccc(NC(=O)CSc2nc(=O)n(Cc3ccccn3)c3c2CCC3)cc1,inconclusive: 4.55% [signal inhibitor],–
CCOc1ccccc1C(=O)N(Cc1cc(OC)c(OC)c(OC)c1)c1ccccn1,inconclusive: 0.225% [signal inhibitor],–
Cc1cccc(N2CCN(C(=O)c3ccc(CS(=O)(=O)c4ccccc4C)o3)CC2C)c1 (stereo not drawn),inconclusive: 2.08% [signal inhibitor],–
Cc1ccc(Nc2sc(C(=O)c3ccccc3)c(N)c2C(=O)Nc2ccc(Cl)cc2)cc1,inconclusive: -1.78% [signal inhibitor],–
COc1ccc(-c2cn3nc(N4CCCC(C(=O)Nc5cccc(OC)c5)C4)sc3n2)cc1 (stereo not drawn),inconclusive: 0.468% [signal inhibitor],–
CCOCCCNC(=O)c1cc(Sc2cccc(Cl)c2)nc2ccccc12,inconclusive: 0.418% [signal inhibitor],–
COc1cccc(C(=O)N2c3ccc(C)cc3C(C)(c3ccccc3)CC2(C)C)c1 (stereo not drawn),inconclusive: 14% [signal inhibitor],–
Cc1ccccc1C(=O)Nc1sc2c(c1C(=O)N1CCCCC1)CCC(C)C2 (stereo not drawn),inconclusive: 17.2% [signal inhibitor],–
CCC(=O)Nc1ccc(NC(=O)c2ccco2)c(OC)c1,inactive: -2.01%,–
O=C(NCc1cccnc1)C(=O)NCC(c1cccnc1)N1CCN(c2ccc(F)cc2)CC1 (stereo not drawn),inconclusive: 4.03% [signal inhibitor],–
CCOC(=O)N1CCN(c2cc(NCCC(=O)O)c3c4c(onc24)-c2ccccc2C3=O)CC1,inconclusive: 4.39% [signal inhibitor],–
CCCCN1C(=O)c2[nH]nc(-c3ccccc3O)c2C1c1ccc(OCc2ccccc2)cc1 (stereo not drawn),inconclusive: 0.845% [signal inhibitor],–
O=C(c1ccco1)N(Cc1cc2ccccc2[nH]c1=O)C1CCCCC1,–,"inconclusive: 20 µM [signal inhibitor, partial curve]"
Cc1ccc(S(=O)(=O)N2CCCc3cc(NS(=O)(=O)c4cccc(Cl)c4)ccc32)cc1,inconclusive: 9.15% [signal inhibitor],–
COc1ccccc1NC(=O)CSc1nnc(NC(=O)Nc2ccc(C)cc2)s1,inconclusive: 0.723% [signal inhibitor],–
COc1ccc2cc(CN(Cc3ccco3)Cc3nnnn3C3CCCCC3)c(=O)[nH]c2c1,inconclusive: 2.73% [signal inhibitor],–

# From PubChem BioAssay AID445 (National Center for Advancing Translational Sciences (NCATS), 2006)
